Among the data in paper PMC3493068 are binding values, retold here.

Experiment [1] deals with T1, c-myc-tagged human dysferlin deletion mutant aa 1081-2080 (without the C2A domain) (human) (UniProt O75923).
T1 sequence: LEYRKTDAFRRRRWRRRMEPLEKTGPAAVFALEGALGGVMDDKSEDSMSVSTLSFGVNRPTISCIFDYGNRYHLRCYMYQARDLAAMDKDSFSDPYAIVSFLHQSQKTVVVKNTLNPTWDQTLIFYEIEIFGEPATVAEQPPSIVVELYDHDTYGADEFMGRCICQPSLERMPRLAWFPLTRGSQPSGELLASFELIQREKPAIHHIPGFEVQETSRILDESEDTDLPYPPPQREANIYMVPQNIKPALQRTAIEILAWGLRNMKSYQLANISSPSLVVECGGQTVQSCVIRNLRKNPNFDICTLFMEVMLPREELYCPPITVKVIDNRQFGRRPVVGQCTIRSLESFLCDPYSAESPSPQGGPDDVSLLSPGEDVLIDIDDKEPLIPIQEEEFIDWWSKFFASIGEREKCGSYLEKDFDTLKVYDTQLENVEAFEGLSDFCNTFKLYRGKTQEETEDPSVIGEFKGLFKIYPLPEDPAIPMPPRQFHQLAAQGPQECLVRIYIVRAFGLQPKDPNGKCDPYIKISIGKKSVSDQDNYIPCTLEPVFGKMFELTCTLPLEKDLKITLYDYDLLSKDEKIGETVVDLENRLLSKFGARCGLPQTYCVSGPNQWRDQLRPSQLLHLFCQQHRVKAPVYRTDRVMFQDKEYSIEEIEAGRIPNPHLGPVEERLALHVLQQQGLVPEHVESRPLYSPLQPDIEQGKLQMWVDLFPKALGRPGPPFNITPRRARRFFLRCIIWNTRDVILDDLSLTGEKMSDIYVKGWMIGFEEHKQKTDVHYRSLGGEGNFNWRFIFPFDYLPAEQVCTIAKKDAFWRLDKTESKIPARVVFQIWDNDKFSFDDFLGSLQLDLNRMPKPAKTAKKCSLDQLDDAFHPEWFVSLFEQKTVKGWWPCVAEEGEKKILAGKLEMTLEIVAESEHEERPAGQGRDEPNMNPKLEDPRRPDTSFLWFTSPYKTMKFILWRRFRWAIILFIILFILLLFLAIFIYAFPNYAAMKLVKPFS
Kind of experiment: co-IP; COS-7 cells co-transfected with FLAG-MG53 and c-myc-dysferlin constructs, lysed 48 h later in 20 mM Tris-HCl pH 7.5, 150 mM NaCl, 1% NP-40 without CaCl2 and EGTA; IP with anti-FLAG (M2) or anti-c-myc (9E10), immunoblot.

For experiment [2], the target named is c-myc-tagged human dysferlin deletion mutant aa 130-2080 (without the C2A domain) (human) (UniProt O75923). The experiment is described as above.
In experiment [3] the target is V67D dysferlin C2A-GST fusion protein (aa 1-129 of human dysferlin) (human) (UniProt O75923). Kind of experiment: pull-down; C2A-GST fusion on glutathione Sepharose 4B; COS-7 lysate with FLAG-MG53 supplemented with 5 mM NEM and cross-linked with glutaraldehyde (MG53 oligomers); 75 mM Tris-HCl pH 7.5, 150 mM NaCl, 1% NP-40, 2 mM EGTA, with or without Ca2+; 2 hr at 4°C; only the target purified.

Experiment [4] concerns the target W52R dysferlin C2A-GST fusion protein (aa 1-129 of human dysferlin) (human) (UniProt O75923). The description is as above.
The target in experiment [5] is wild-type dysferlin C2A-GST fusion protein (aa 1-129 of human dysferlin) (human) (UniProt O75923). The description is as above.

No constants are given. Whether binding was seen depends on the method and setting. Binding seen in cells or lysates may run through a third protein. Some binding calls cover weakened binding; strength is not graded here. Where a sequence is shown, tags or fusion partners need not be part of it.

B1: FLAG-tagged full-length human MG53 (protein, UniProt Q6ZMU5 1-477)
chain: MSAAPGLLHQELSCPLCLQLFDAPVTAECGHSFCRACLGRVAGEPAADGTVLCPCCQAPTRPQALSTNLQLARLVEGLAQVPQGHCEEHLDPLSIYCEQDRALVCGVCASLGSHRGHRLLPAAEAHARLKTQLPQQKLQLQEACMRKEKSVAVLEHQLVEVEETVRQFRGAVGEQLGKMRVFLAALEGSLDREAERVRGEAGVALRRELGSLNSYLEQLRQMEKVLEEVADKPQTEFLMKYCLVTSRLQKILAESPPPARLDIQLPIISDDFKFQVWRKMFRALMPALEELTFDPSSAHPSLVVSSSGRRVECSEQKAPPAGEDPRQFDKAVAVVAHQQLSEGEHYWEVDVGDKPRWALGVIAAEAPRRGRLHAVPSQGLWLLGLREGKILEAHVEAKEPRALRSPERRPTRIGLYLSFGDGVLSFYDASDADALVPLFAFHERLPRPVYPFFDVCWHDKGKNAQPLLLVGPEGAEA
Consider B1, for which the binding entry in experiment [1] was “no binding”; in experiment [2], “no binding”; in experiment [3], “binds”; in experiment [4], “binds”; in experiment [5], “binds”.
